# Experimental data taken from the supplement of paper PMC8728848.
# Some of the results follow.
# B1: F4 (Escherichia coli), A0A6L9DDF0 (protein)
# chain: MKKTLIALALAASAVSGMAHAWTSGDFNGTVDIGGSIDATNYRQKWEWEVGTGLNGFYNALSELTNNDTKLTITVTGNKPILLGRTKEAFVTPTAGGWGGIPQIAFTDYKGAPVELKNPDGETNKGLAYFVLPMKNADGTEAGSVRVNASYAGAVVEKTSDSSAKLFSAYAGEVIRIFNGGLPVNVTQSELQSGVAAADRTALFGSLGKADLVAQFQAVIPGATVTDGTSSEHCTMRLLASAAYALGIADGQTIEATFNQAVTTSTQWSAPLNVAITYY
# Legend:
# Experiment in all cases: glycan array binding signal (z-score within array); higher = stronger binding
# Conditions in all cases: glycan notation: IUPAC condensed, linker removed
# [1] = target: GlcNAc(b1-4)GlcNAc(b1-4)GlcNAc(b1-4)GlcNAc(b1-4)GlcNAc
# How it was run: (§1)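 The binding signal is a Z-score computed within each array and averaged over linkers. Arrays of the same protein sequence at different concentrations or buffers were also averaged together. Data originate from 3228 arrays in the Consortium for Functional Glycomics database, kept only where the protein sequence was available.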
# [2] = target: GlcNAc(b1-4)GlcNAc(b1-4)GlcNAc(b1-4)GlcNAc(b1-4)GlcNAc(b1-4)GlcNAc
# How it was run: as §1
# [3] = target: GlcNAc(b1-4)[GlcNAc(b1-6)]GalNAc
# How it was run: as §1
# [4] = target: GlcNAc(b1-6)Gal(b1-4)GlcNAc
# How it was run: as §1
# GlcNAc(b1-6)GalNAc = target: GlcNAc(b1-6)GalNAc
# How it was run: as §1
# Kdn(a2-3)Gal(b1-3)GlcNAc = target: Kdn(a2-3)Gal(b1-3)GlcNAc
# How it was run: as §1
# Kdn(a2-3)Gal(b1-4)GlcNAc = target: Kdn(a2-3)Gal(b1-4)GlcNAc
# How it was run: as §1
# [5] = target: Man(a1-2)Man(a1-2)Man(a1-3)Man
# How it was run: as §1
# [6] = target: Man(a1-2)Man(a1-2)Man(a1-6)[Man(a1-3)]Man
# How it was run: as §1
# Man(a1-2)Man(a1-3)Man = target: Man(a1-2)Man(a1-3)Man
# How it was run: as §1
# [7] = target: Man(a1-2)Man(a1-3)[Man(a1-2)Man(a1-6)]Man
# How it was run: as §1
# [8] = target: Man(a1-2)Man(a1-3)[Man(a1-2)Man(a1-6)]Man(a1-6)[Man(a1-2)Man(a1-2)Man(a1-3)]Man(b1-4)GlcNAc(b1-4)GlcNAc
# How it was run: as §1
# [9] = target: Man(a1-2)Man(a1-3)[Man(a1-6)]Man(a1-6)[Man(a1-2)Man(a1-3)]Man(b1-4)GlcNAc(b1-4)GlcNAc
# How it was run: as §1
# [10] = target: Man(a1-2)Man(a1-6)[Man(a1-3)]Man(a1-6)[Man(a1-2)Man(a1-2)Man(a1-3)]Man(b1-4)GlcNAc(b1-4)GlcNAc
# How it was run: as §1
# Man(a1-3)[Man(a1-6)]Man = target: Man(a1-3)[Man(a1-6)]Man
# How it was run: as §1
# [11] = target: Man(a1-3)[Man(a1-6)]Man(a1-6)[Man(a1-2)Man(a1-3)]Man(b1-4)GlcNAc(b1-4)GlcNAc
# How it was run: as §1
# [12] = target: Man(a1-3)[Man(a1-6)]Man(a1-6)[Man(a1-3)]Man(b1-4)GlcNAc(b1-4)GlcNAc
# How it was run: as §1
# [13] = target: Man(a1-3)[Man(a1-6)]Man(b1-4)GlcNAc(b1-4)GlcNAc
# How it was run: as §1
# Man(b1-4)GlcNAc = target: Man(b1-4)GlcNAc
# How it was run: as §1
# Neu5Ac(a2-3)Gal = target: Neu5Ac(a2-3)Gal
# How it was run: as §1
# [14] = target: Neu5Ac(a2-3)Gal(b1-3)GalNAc
# How it was run: as §1
# [15] = target: Neu5Ac(a2-3)Gal(b1-3)GalNAc(b1-3)Gal(a1-4)Gal(b1-4)Glc
# How it was run: as §1
# [16] = target: Neu5Ac(a2-3)Gal(b1-3)GalNAc(b1-3)Gal(b1-4)GlcNAc
# How it was run: as §1
# [17] = target: Neu5Ac(a2-3)Gal(b1-3)GalNAc(b1-4)[Neu5Ac(a2-3)]Gal(b1-4)Glc
# How it was run: as §1
# [18] = target: Neu5Ac(a2-3)Gal(b1-3)GalNAc6S
# How it was run: as §1
# [19] = target: Neu5Ac(a2-3)Gal(b1-3)GlcNAc
# How it was run: as §1
# [20] = target: Neu5Ac(a2-3)Gal(b1-3)GlcNAc6S
# How it was run: as §1
# [21] = target: Neu5Ac(a2-3)Gal(b1-3)[Fuc(a1-4)]GlcNAc
# How it was run: as §1
# [22] = target: Neu5Ac(a2-3)Gal(b1-3)[Fuc(a1-4)]GlcNAc(b1-3)Gal(b1-4)[Fuc(a1-3)]GlcNAc
# How it was run: as §1
# [23] = target: Neu5Ac(a2-3)Gal(b1-3)[Neu5Ac(a2-3)Gal(b1-4)]GlcNAc
# How it was run: as §1
# [24] = target: Neu5Ac(a2-3)Gal(b1-3)[Neu5Ac(a2-6)]GalNAc
# How it was run: as §1
# Neu5Ac(a2-3)Gal(b1-4)Glc = target: Neu5Ac(a2-3)Gal(b1-4)Glc
# How it was run: as §1
# [25] = target: Neu5Ac(a2-3)Gal(b1-4)GlcNAc
# How it was run: as §1
# [26] = target: Neu5Ac(a2-3)Gal(b1-4)GlcNAc(b1-2)Man(a1-3)[Neu5Ac(a2-3)Gal(b1-4)GlcNAc(b1-2)Man(a1-6)]Man(b1-4)GlcNAc(b1-4)GlcNAc
# How it was run: as §1
# [27] = target: Neu5Ac(a2-3)Gal(b1-4)GlcNAc(b1-3)Gal(b1-4)GlcNAc
# How it was run: as §1
# [28] = target: Neu5Ac(a2-3)Gal(b1-4)GlcNAc(b1-3)Gal(b1-4)GlcNAc(b1-3)Gal(b1-4)GlcNAc
# How it was run: as §1
# [29] = target: Neu5Ac(a2-3)Gal(b1-4)GlcNAc(b1-3)Gal(b1-4)[Fuc(a1-3)]GlcNAc
# How it was run: as §1
binder,measurement,setting,value
B1,glycan array binding signal (z-score),[1],-0.326
same,glycan array binding signal (z-score),[2],-0.371
same,glycan array binding signal (z-score),[3],-0.205
same,glycan array binding signal (z-score),[4],-0.304
same,glycan array binding signal (z-score),GlcNAc(b1-6)GalNAc,-0.365
same,glycan array binding signal (z-score),Kdn(a2-3)Gal(b1-3)GlcNAc,-0.342
same,glycan array binding signal (z-score),Kdn(a2-3)Gal(b1-4)GlcNAc,-0.182
same,glycan array binding signal (z-score),[5],0.121
same,glycan array binding signal (z-score),[6],0.169
same,glycan array binding signal (z-score),Man(a1-2)Man(a1-3)Man,-0.245
same,glycan array binding signal (z-score),[7],0.052
same,glycan array binding signal (z-score),[8],-0.311
same,glycan array binding signal (z-score),[9],-0.017
same,glycan array binding signal (z-score),[10],0.038
same,glycan array binding signal (z-score),Man(a1-3)[Man(a1-6)]Man,-0.014
same,glycan array binding signal (z-score),[11],-0.167
same,glycan array binding signal (z-score),[12],-0.019
same,glycan array binding signal (z-score),[13],-0.145
same,glycan array binding signal (z-score),Man(b1-4)GlcNAc,-0.39
same,glycan array binding signal (z-score),Neu5Ac(a2-3)Gal,-0.262
same,glycan array binding signal (z-score),[14],-0.365
same,glycan array binding signal (z-score),[15],-0.287
same,glycan array binding signal (z-score),[16],-0.329
same,glycan array binding signal (z-score),[17],-0.363
same,glycan array binding signal (z-score),[18],-0.135
same,glycan array binding signal (z-score),[19],-0.256
same,glycan array binding signal (z-score),[20],-0.141
same,glycan array binding signal (z-score),[21],-0.264
same,glycan array binding signal (z-score),[22],-0.197
same,glycan array binding signal (z-score),[23],-0.311
same,glycan array binding signal (z-score),[24],-0.291
same,glycan array binding signal (z-score),Neu5Ac(a2-3)Gal(b1-4)Glc,-0.384
same,glycan array binding signal (z-score),[25],0.598
same,glycan array binding signal (z-score),[26],-0.209
same,glycan array binding signal (z-score),[27],-0.284
same,glycan array binding signal (z-score),[28],-0.282
same,glycan array binding signal (z-score),[29],-0.324
